PMC12040169 (PLOS Biology, 2025)
Some of the results follow.

The molecules below were run on T1, C. trachomatis L2/434/Bu expressing GFP (CTL2-GFP). Details: total inclusion area; 28.5 h, 10 µM; inhibitor.
T1 construct: L2/434/Bu GFP intracellular growth in HeLa cells
Design: species or system HeLa; C. trachomatis total inclusion area by high-content imaging, normalised to DMSO
Outline: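 Bulk GFP and resorufin signals were read first. Wells were then fixed, stained with Hoechst and imaged to detect GFP inclusions and host nuclei. MICs followed the previously described calculation.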
With O=C(CN1CCCC1)Nc1sc2c(c1C(=O)NCc1ccccc1)CCCC2 [CBK268926] the “% of control remaining” value was 90.7216.
For Cc1ccnc(NS(=O)(=O)c2ccc(NS(C)(=O)=O)cc2)n1 [CBK261552], the “% of control remaining” value was 108.314.
Cc1nc(CC(=O)NC(Cc2ccsc2)c2cccnc2)cs1 (centres unmarked) [CBK285389] was tested, and the “% of control remaining” value was 81.2635.
N#Cc1ccc(CNC(=O)c2ccc3nc[nH]c3c2)cc1 [CBK153332] was tested, and the “% of control remaining” value was 56.6142.
CC(C)[C@H](CO)Nc1nc(-c2ccc(CCC(=O)O)cc2)cn2ccnc12 [CBK037522] was tested, and the “% of control remaining” value was 132.112.
In the case of Cc1ccc(C(=O)c2coc3ccc(OCC(=O)O)cc23)cc1 [CBK263084], the “% of control remaining” value is reported as 95.7426.
In the case of O=C(OCCc1cccnc1)N1CCC(C(F)(F)F)CC1 [CBK200159], the “% of control remaining” value is reported as 116.523.
For Cn1ccnc1C(=O)N1C[C@H]2CCc3c(n[nH]c3C(F)(F)F)[C@H]2C1 [CBK283441], the “% of control remaining” value was 102.579.
In the case of O=C(COc1ccc(S(=O)(=O)N2CCCC2)cc1Cl)Nc1ccc2c(c1)OCCO2 [CBK268559], the “% of control remaining” value is reported as 90.9156.
In the case of C[C@H](Nc1nc(-c2cccc3ncccc23)cnc1N)c1ccccc1 [CBK063771], the “% of control remaining” value is reported as 91.492.
In the case of COc1cccc(-c2nc(C3CCN(CCc4ccc(F)cc4)CC3)n3ccccc23)c1 [CBK035373], the “% of control remaining” value is reported as 94.1702.
In the case of CCS(=O)(=O)N1CC2CCCC(O)(c3ccc(F)cc3)C2C1 (centres unmarked) [CBK284363], the “% of control remaining” value is reported as 68.5343.
With CC1(C)NC(=O)N(CC(O)Cn2c3ccccc3c3ccccc32)C1=O (centres unmarked) [CBK304318] the “% of control remaining” value was 73.1096.
In the case of CCOC(=O)Cn1ncc2c3sc(C)cc3n(C)c2c1=O [CBK282388], the “% of control remaining” value is reported as 105.665.
With CC(C)(C)N1C(=O)c2ccc(C(=O)Nc3ccccc3C(=O)O)cc2C1=O [CBK287004] the “% of control remaining” value was 95.4598.
With CCCc1[nH]nc(O)c1-c1cccc2ccccc12 [CBK075125] the “% of control remaining” value was 85.8537.
CC(C)(C)OC(=O)N1CCN(c2cc(Cl)nc(N)n2)CC1 [CBK003505] was tested, and the “% of control remaining” value was 16.7514.
With CC(=O)N1CCc2nc(NC(=O)c3cccs3)sc2C1 [CBK282680] the “% of control remaining” value was 111.84.
With O=C(c1cccs1)n1ccc(-c2ccc3c(c2)CCO3)n1 [CBK006090] the “% of control remaining” value was 95.3328.
In the case of CC1(OCc2ccccc2)SC(NC2CCCCCC2)=NC1=O (centres unmarked) [CBK105606], the “% of control remaining” value is reported as 36.4718.
COc1ccc(C)cc1NC(=O)CSc1nc(C)cc(C(F)(F)F)n1 [CBK270205] was tested, and the “% of control remaining” value was 98.0408.
In the case of COCCNC(=O)N1CCN(Cc2ccccn2)CC1 [CBK304817], the “% of control remaining” value is reported as 77.1868.
In the case of COc1ccc(-c2nc3ccccn3c2CN2CCC(C(=O)O)CC2)cc1OC [CBK287063], the “% of control remaining” value is reported as 100.464.
In the case of CC(=O)NCc1cccc(-c2cc(COc3ccc4c(c3)OCO4)cnc2-c2ccc(Cl)cc2)c1 [CBK164106A], the “% of control remaining” value is reported as 77.771.
For O=C(NCCN1CCOCC1)c1cc(-n2cnnc2)ccc1Cl [CBK268023], the “% of control remaining” value was 106.994.
In the case of CC1CCN(C(=O)CC(NC(N)=O)c2cccc(Br)c2)CC1 (centres unmarked) [CBK305788], the “% of control remaining” value is reported as 43.3206.
Cc1ccn(CCNC(=O)c2cc3cccc(C)c3nc2C)n1 [CBK282645] was tested, and the “% of control remaining” value was 124.959.
For CS(=O)(=O)NC1CCCCC1 [CBK012234], the “% of control remaining” value was 41.8592.
With O=C(NCC(F)(F)F)c1cnc(-c2ccc(Cl)cc2)c(-c2ccco2)c1 [CBK037468] the “% of control remaining” value was 86.598.
With Cc1cc(C)nc(NC(=O)c2cccc(Cl)c2)n1 [CBK288165] the “% of control remaining” value was 83.1341.
For c1ccc(COc2ccc3[nH]c4c(c3c2)CCNC42CCCN(CC3CC3)C2)cc1 (centres unmarked) [CBK040619], the “% of control remaining” value was 42.9016.
In the case of CC(C)(C)c1ccc(OCc2nc(N)c3c(N)n[nH]c3n2)cc1 [CBK008565], the “% of control remaining” value is reported as 88.472.
For Cc1nn(C)c(C)c1C(=O)Nc1sc2c(c1C#N)CCC(C)C2 (centres unmarked) [CBK304645], the “% of control remaining” value was 1.188.
In the case of O=C(O)CCC(=O)CCC(=O)c1cccs1 [CBK264807], the “% of control remaining” value is reported as 90.3496.
For CC(C)CCNC(=O)c1ccc(N2CCN(C(=O)c3ccccc3C(F)(F)F)CC2)nn1 [CBK153222], the “% of control remaining” value was 68.5729.
For O=C(O)CC(C(=O)Nc1ccccc1)C1CCCO1 (centres unmarked) [CBK286809], the “% of control remaining” value was 104.553.
In the case of Cc1nn(Cc2ccc(F)cc2)c2sc(C(=O)NCc3ccc(S(N)(=O)=O)cc3)cc12 [CBK295181], the “% of control remaining” value is reported as 76.6236.
For COc1cc(OC)nc(C(NC(=O)C2CCN(CCN3C(=O)c4ccccc4C3=O)CC2)c2ccc(F)cc2)n1 (centres unmarked) [CBK148083], the “% of control remaining” value was 94.8025.
In the case of COc1ccc(Br)cc1/C=C/C(=O)NC(=S)Nc1cc(C(=O)O)ccc1Cl [CBK265564], the “% of control remaining” value is reported as 90.1325.
In the case of C=C(C)Cn1c(SCC(C)C)nnc1-c1scc(C)c1Cl [CBK200095], the “% of control remaining” value is reported as 94.9195.
In the case of N#Cc1ccccc1NC(=O)NCCC1=CCCCC1 [CBK044365], the “% of control remaining” value is reported as 85.722.
For O=C(O)CCc1ccc(-c2cccs2)n1-c1ccc(C(=O)O)cc1 [CBK266016], the “% of control remaining” value was 98.3845.
In the case of Nc1n[nH]c2nc(-c3ccccc3)c3c(c12)CCC3 [CBK288178], the “% of control remaining” value is reported as 76.6741.
In the case of Cc1nn(C)cc1-c1cncn1C(C)c1ccc2c(c1)CCCO2 (centres unmarked) [CBK281798], the “% of control remaining” value is reported as 121.566.
For Cc1ccc2nc(COC(=O)c3cc(-c4ccccc4)nn3-c3ccccc3)cc(=O)n2c1 [CBK296959], the “% of control remaining” value was 84.0395.
In the case of O=C1CCCN1c1ccc(S(=O)(=O)NCC2CC3CCC2C3)cc1 (centres unmarked) [CBK282841], the “% of control remaining” value is reported as 105.14.
For O=C(C1=C(O)C(=O)N(CCCN2CCOCC2)C1c1cccs1)c1cccs1 (centres unmarked) [CBK264533], the “% of control remaining” value was 117.505.
With Cn1c(C(=O)NCCc2cnccn2)cc2cc(Cl)ccc21 [CBK281575] the “% of control remaining” value was 101.252.
CCN(CC)C(=O)C1CCCN(C(=O)NCc2ccc3c(c2)OCO3)C1 (centres unmarked) [CBK156121] was tested, and the “% of control remaining” value was 84.1592.
With Cc1nc(C)c(S(=O)(=O)Nc2ccccc2-c2nnnn2C(C)C)s1 [CBK305508] the “% of control remaining” value was 72.2914.
COC(=O)c1ccc(NC(=O)c2ccccc2-c2ccccc2C(=O)O)cc1 [CBK265759] was tested, and the “% of control remaining” value was 51.0682.
For Nc1c(-c2cccc(C(F)(F)F)c2)cnc2cccnc12 [CBK081187], the “% of control remaining” value was 106.295.
O=C1CC(C(=O)Nc2ccccc2)NC(Nc2cc(Cl)cc(Cl)c2)=N1 (centres unmarked) [CBK268752] was tested, and the “% of control remaining” value was 94.974.
Cc1cc(F)c(S(N)(=O)=O)cc1NC(=O)c1ccc(C(F)(F)F)cc1 [CBK051448] was tested, and the “% of control remaining” value was 108.365.
In the case of COc1cccc(NC(=O)CSc2ccc(Cl)cc2)c1 [CBK263811], the “% of control remaining” value is reported as 81.9674.
For NC(=O)CCNC(=O)N1CCc2ccccc2C1 [CBK155288], the “% of control remaining” value was 122.947.
For COc1ccccc1CC(=O)N1CCC(Cc2cccc(-c3cccs3)c2)(C(N)=O)CC1 [CBK285743], the “% of control remaining” value was 99.7588.
With CC(=O)N1CCC(Cn2nc(-c3ccc(F)cc3)ccc2=O)CC1 [CBK282406] the “% of control remaining” value was 93.0598.
With COc1ccccc1-c1cc(N2CCN(CC(=O)N(C)c3ccccc3)CC2)ncn1 [CBK091136] the “% of control remaining” value was 163.677.
In the case of CN(Cc1ccccc1)c1nccnc1-c1cccnc1 [CBK037414], the “% of control remaining” value is reported as 94.7903.
For O=C(C[C@@H]1O[C@H](CNS(=O)(=O)c2ccccc2)[C@@H](O)[C@H]1O)N1CCCC1 [CBK288909], the “% of control remaining” value was 110.164.
With CCN1CCCCC1CNC(=O)Cn1nc(C)cc1C (centres unmarked) [CBK282057] the “% of control remaining” value was 90.3617.
For O=C(Nc1ccc(O)cc1)c1cnc(-c2ccc(Cl)cc2)c(-c2cccnc2)c1 [CBK037516], the “% of control remaining” value was 132.118.
With S=c1[nH]cc(-c2ccc(Br)cc2)o1 [CBK288498] the “% of control remaining” value was 56.1214.
CC(C)C(C(=O)O)N1C(=O)C2C3C=CC(C3)C2C1=O (centres unmarked) [CBK286535] was tested, and the “% of control remaining” value was 84.9192.
In the case of CSCCN1CCN(c2nccnc2OCCN2C(=O)CCC2=O)CC1 [CBK084301], the “% of control remaining” value is reported as 87.8245.
In the case of CCCOC(=O)N(O)c1ccc(Cl)c(Cl)c1 [CBK288400], the “% of control remaining” value is reported as 25.1259.
With CCn1c2cc(C)sc2c2cnn(CC(=O)NC(C)C)c(=O)c21 [CBK284172] the “% of control remaining” value was 66.5855.
For COc1ccc(/C=N/NS(=O)(=O)c2ccc(C)cc2)cc1CSc1ccccn1 [CBK263036], the “% of control remaining” value was 87.2221.
In the case of CS(=O)(=O)N1CCc2cc(-c3cc4ccccn4c3)ccc21 [CBK285256], the “% of control remaining” value is reported as 77.23.
For CC(=O)N1CCN(C(=O)c2nn(-c3ccc(F)cc3)c3c2CCCCC3)CC1 [CBK295293], the “% of control remaining” value was 103.663.
Cc1ccc(S(=O)(=O)N2CCN(C(c3ccccc3)c3ccccc3)CC2)cc1[N+](=O)[O-] [CBK293949] was tested, and the “% of control remaining” value was 107.325.
For Cn1nc(NC(=O)c2cnccn2)c2c(N3CCOCC3)cccc21 [CBK306716], the “% of control remaining” value was 83.9281.
COc1ccc([C@@H]2CCN(C(=O)Cc3ccc(F)cc3)C[C@H]2O)cc1 [CBK283709] was tested, and the “% of control remaining” value was 87.677.
In the case of Cc1ccc(-c2nnc(CNC(=O)C(c3ccccc3)c3ccccc3)o2)s1 [CBK286299], the “% of control remaining” value is reported as 111.085.
In the case of Oc1cccc(-c2cc(CC3(NCc4cnc5ccccc5c4)COC3)no2)c1 [CBK289662], the “% of control remaining” value is reported as 81.0081.
With O=C(Cc1c[nH]c2ccccc12)Nc1cnc(-c2cccc(OC(F)(F)F)c2)c(-c2cccnc2)n1 [CBK036863] the “% of control remaining” value was 138.081.
In the case of COc1ccc(NC(=O)CC2SC(NC3CCCCC3)=NC2=O)c(OC)c1 (centres unmarked) [CBK059502], the “% of control remaining” value is reported as 77.6073.
In the case of COc1cc(-c2cncc(NCc3cccc(Cl)c3)n2)cc(OC)c1OC [CBK065284], the “% of control remaining” value is reported as 89.2525.
CCC(=O)N1C[C@@H](N(C)C)[C@H](c2cn(C)c3ccccc23)C1 [CBK285008] was tested, and the “% of control remaining” value was 117.28.
